Measured values taken from PubChem BioAssay AID1508624 (National Center for Advancing Translational Sciences (NCATS), 2021).
Out of some 48,000 compounds screened, about 120 (0.25%) were called active. Roughly 4% stayed inconclusive and do not appear here. Calls come from the whole dose curve; as a rule, active = well fitted activation curve with a large enough effect; inconclusive = small, poorly fitted or top-dose-only effect, or another doubt; inactive = no such curve, though single readings can be large or run the other way. This is one part of the list.

test: Primary qHTS for Identification of Small Molecule Activators of Huntingtin-Antisense Promoter Activity; settings: HEK293 HTT-AS promoter firefly luciferase reporter, 24 h; series mostly up to 57.5 µM; activity change, positive = activation: at the top concentration; note: nearly all actives have a fitted effect of over 55% in size
Method in brief: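 Luminescence was read after Dual-Glo reagent and a 10 min room-temperature incubation. Values were normalized to vehicle (0% activity) and zero RLU (-100% activity). Reporter HEK293 cells had been exposed to compounds (up to 57.5 uM final) for 24 h.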

Activity change, positive = activation, inactive:
Cc1cc(C)cc(NC(=O)C2CCCN2S(=O)(=O)c2cccc3nsnc23)c1 (centres undefined) 0.25% [at 11.5 µM, percent change from vehicle, -100% = no light]
CCn1c(-c2ccc(S(=O)(=O)N3CCOCC3)cc2)csc1=Nc1ccc(C)c(Cl)c1 -9.15%
Cc1ccc(C(=O)n2nc(C)c(S(=O)(=O)N3CCCCCC3)c2C)cc1 -12.8%
CCOC(=O)c1ccc(CN(Cc2ccccc2C)S(=O)(=O)c2ccc(C(C)(C)C)cc2)cc1 -16.1%
COc1cccc(C2C(C(=O)Nc3ccccc3)=C(C)Nc3nc(-c4ccccc4)nn32)c1OC (centres undefined) -24.1%
Cc1cccc(-c2noc(-c3ccc(N4CCN(C)CC4)c([N+](=O)[O-])c3)n2)c1 -72.8%
COc1ccc(C)cc1NC(=O)c1ccc2c(c1)CCN2S(=O)(=O)c1ccc(Cl)cc1 -0.52%
Cc1ccc(C)c(CN2CCC(CNC(=O)c3cc4ccc5cccnc5c4[nH]3)CC2)c1 -13.8%
COc1ccc(CNc2nc3c(c(=O)n(C)c(=O)n3C)n2Cc2ccccc2Cl)cc1 0.936%
CC(C)(C)OC(=O)N1CCC(c2nnc(SCc3ccccc3)o2)CC1 -24.4%
Cc1cc(NC(=O)COc2ccccc2)cc(-c2nc3ccccc3o2)c1O -7.85%
COc1ccc(-c2noc(-c3ccc(N4CCCCC4C)c([N+](=O)[O-])c3)n2)cc1OC (centres undefined) -9.53%
COc1ccccc1CNC(=O)c1ccc(N2Cc3cccc(OC)c3Oc3ncccc32)s1 -8.33%
CCCn1c(-c2cccc(Br)c2)nc2ccccc21 -4.92%
Cn1ncc(C(=O)N2CCN(c3ccc(F)cc3)CC2)c1C1CCN(C(=O)OC(C)(C)C)CC1 -12.3%
CCCN1C(=O)C(Cc2nc3ccccc3c(=O)n2-c2cccc(C)c2)c2ccccc21 (centres undefined) -10.4%
O=C(NCCOCCn1c(=O)oc2ccccc21)Nc1ccc(F)cc1 -5.45%
COc1ccc(OCC(=O)Nc2cccc(-c3nc4ccccc4s3)c2C)cc1 -36.2%
Cc1nc(N2CCCC2)ncc1C(=O)Nc1ccc(F)cc1F 21.5%
COc1ccccc1OCC(=O)Nc1nc(-c2ccc(Br)cc2)ns1 -4.67%
CC(C)N(Cc1ccccc1)C(=O)CCS(=O)(=O)c1ccc2c(c1)oc(=O)n2C -9.84% [at 11.5 µM, percent change from vehicle, -100% = no light]
Cc1ccc(NC(=O)C2CCN(S(=O)(=O)c3c(C)noc3/C=C/c3ccco3)CC2)cc1C -24.1%
Cc1ccc(S(=O)(=O)c2cn(C)c3cc(N4CCCC(C)C4)c(F)cc3c2=O)c(C)c1 (centres undefined) -27%
Cc1cc2c(cc1S(=O)(=O)N(CCN(C)C)Cc1ccco1)OCC(=O)N2 -5.73%
Cc1ccc(Cn2c(C)c(CNCCCc3ccccc3)c(C(=O)O)c2C)cc1 -15%
CC1CCN(S(=O)(=O)c2ccc3c(c2)CCC(=O)N3CC(=O)Nc2cccc(C#N)c2)CC1 -16.4%
CCCCNC(=O)CSc1nnc(C)c2c(C)n(-c3ccccc3)nc12 -31.1%
Cc1ccc(-c2noc(CNC(=O)c3ccccc3)n2)cc1 -15.9%
CCC1CN(C(=O)N2CCC(C(=O)NCc3ccccc3C)CC2)c2ccccc2O1 (centres undefined) -26.5%
Cc1ccc(-c2cc3c(n2-c2ccc(C)cc2)CC(C)(C)CC3=O)cc1 -13.4%
Cc1ccc(C2=NN(CC(=O)NCCN(CC(C)C)CC(C)C)C(=O)CC2)cc1 -12%
CC(C)NC(=O)C1CCN(c2nc3ccccc3nc2C(F)(F)F)CC1 -7.39%
CCCCCCCCCCCC[N+](C)(C)Cc1ccccc1 9.53%
O=C(NCc1ccccc1)c1ccc(CSc2nc3cccnc3n2Cc2ccccc2F)cc1 -26%
O=c1c(O)c(-c2ccc(O)cc2O)oc2cc(O)cc(O)c12 -6.69%
N#Cc1ccc(CSc2nc3c(c(=O)[nH]2)CCCC3)cc1 -6.24%
CC(C)Sc1ncc(Cl)c(C(=O)Nc2ccc(S(=O)(=O)N(C)c3ccccc3)cc2)n1 -6.25%
Fc1ccc2ncc3c(-c4ccccc4)n[nH]c3c2c1 -6.12%
COC(=O)CCn1cnc2onc(-c3cc(F)cc(F)c3)c2c1=O -10%
Cc1ccc(C)c(CS(=O)(=O)c2cn(CC(=O)N(C(C)C)C(C)C)c3ccccc23)c1 -20.5%
Cn1ncc2c(Nc3cccc(F)c3)ncnc21 -3.45%
O=C(Nc1c(C(=O)Nc2ccccc2F)oc2ccccc12)c1cc2ccccc2o1 4.25%
COc1ccc(C2CNC(=O)C2)cc1OC1CCCC1 (centres undefined) -12.8%
COc1cc(C(CC(=O)NCCC(C)C)N2Cc3ccccc3C2=O)cc(OC)c1OC (centres undefined) -16.9%
COc1cc(NC(=O)CN2CCN(CC(=O)Nc3ccc(F)cc3)CC2)cc(OC)c1 -16.1%
Cc1c(Cl)cccc1NC(=O)Cn1cnc2nc3c(cc2c1=O)CCCC3 -10.6%
Cc1ccc(-n2ncc3c(N4CCC(Cc5ccccc5)CC4)ncnc32)cc1 -50.8%
O=C(c1ccc2c(c1)N(Cc1ccccc1F)C(=O)c1ccccc1S2=O)N1CCOCC1 (centres undefined) -23.2%
CC(C)(C)CC(=O)NC1CC(=O)N(c2ccc3c(c2)OCCO3)C1 (centres undefined) -24%
Cc1ccc2c(c1)cc1c(=O)n(CC(=O)N3CCCCC3)nc(C)n12 -10.4%
Cc1cccc(N(C)C(=O)CSc2nc3ncccc3o2)c1 -7.69%
CCc1ccc(C(=O)c2cn(CC(=O)Nc3ccc(C)c(C)c3)c3ccccc3c2=O)cc1 -39.7%
CCCCCN=C(N)NN=Cc1c[nH]c2ccc(OC)cc12 -27.5%
COc1ccc2c(c1)c1c(c(=O)n(-c3ccccc3)c(=O)n1CC(=O)Nc1ccc(C)c(C)c1)n2C -19.9%
CN(Cc1ccccc1)S(=O)(=O)c1nnc(NC(=O)c2ccccc2)s1 -12.8%
CCOc1ccc2c(c1)NC(c1cccs1)=NC(c1ccc(F)cc1)=N2 24.7%
CCN(c1ccccc1)c1nnc(NC(=O)Nc2ccc(Br)cc2F)s1 -0.621%
O=C(Nc1ccc(Br)cc1F)N1CCC2(CC1)Oc1ccccc1C(=O)N2Cc1ccccc1F -5.63%
COc1ccc(C2C(C(=O)Nc3ccc(C)cc3C)=C(C)Nc3nc4ccccc4n32)c(OC)c1 (centres undefined) -29.9%
COc1ccc2occ(CC(=O)Nc3ccc(S(=O)(=O)Nc4nc(C)cc(C)n4)cc3)c2c1 -10.2%
O=C1CSC2(C(=O)N(Cc3ccccc3)c3ccccc32)N1c1ccc(Cl)cc1 (centres undefined) -5.69%
CCC(C)NC(=O)C1=CC(c2ccc3c(c2)OCO3)=NS(=O)(=O)N1C (centres undefined) -13.7%
COC(=O)c1cc(NC(=O)Cn2nc(-c3ccc(C)c(C)c3)ccc2=O)cc(C(=O)OC)c1 -5.7%
CC(C)(C)c1ccc(C(=O)N2CCCCC2CCN2CCCCC2)cc1 (centres undefined) -13.3%
COc1cccc2c1Oc1ncccc1N(C(=O)CCC(=O)NCc1ccccc1Cl)C2 -12.4%
O=C(CN1C(=O)COc2ccc(S(=O)(=O)Nc3ccccc3)cc21)Nc1cccc(Cl)c1 -25.6%
Cc1cc(C)cc(NS(=O)(=O)c2ccc3[nH]cc(C(=O)NCc4ccccc4Cl)c(=O)c3c2)c1 -49.2%
CC(=O)Nc1nc(C)c(-c2ccc(Cl)c(S(=O)(=O)NCCO)c2)s1 -34.6%
COc1cc(NC(=O)Cn2c(=O)n(Cc3ccco3)c(=O)c3oc4ccccc4c32)cc(OC)c1 -16%
Cc1ccc(-c2nc(Cn3c(=O)cc(-c4ccccc4)c4c(C)nn(C)c43)c(C)o2)cc1 -1.89%
Cc1ccc(OCCn2nnc3sc4c(c3c2=O)CCC(C)C4)cc1 (centres undefined) 2.7%
CCOc1ccc(C(=O)N2CCC(c3noc(-c4ccc(S(=O)(=O)N5CCCC5)cc4)n3)CC2)cc1 -35.7%
CN(C1CCCCC1)S(=O)(=O)c1ccc2c(c1)c(=O)c(C(=O)N1CCN(c3ccccc3F)CC1)cn2C 2.08%
CCc1c(-c2ccccc2)nc2ccccc2c1C(=O)NCc1ccc(C)cc1 -40.3%
CCOc1ccc(NC(=O)c2cc(=O)c3ccc(C)c(C)c3o2)cc1 0.754% [at 11.5 µM, percent change from vehicle, -100% = no light]
Cn1cnc(S(=O)(=O)N2CCC(C(=O)N3CCN(c4ccccc4F)CC3)CC2)c1 0.4%
CSc1cccc(NS(=O)(=O)c2cn(C)c(C)n2)c1 -8.78%
Cc1cc2c(cc1S(=O)(=O)CCC(=O)NCCc1ccccc1)OCC(=O)N2 -7.6%
CCC1CN(C(=O)Nc2ccc(C)c(F)c2)c2ccccc2S1 (centres undefined) 2.51%
O=C1CN(C(=O)c2ccc(S(=O)(=O)N3CCCC3)cc2)C(c2ccccc2)c2cc(Br)ccc2N1 (centres undefined) -20.8%
CCOc1ccc(-c2nnc(SCC(=O)NCc3ccccc3)o2)cc1 -40.1%
Cc1ccc(NC(=O)CN2CCSc3ccc(S(=O)(=O)N4CCCC4)cc32)cc1C -34.4%
CC(C)(C)C(=O)NC1(C(F)(F)F)C(=O)Nc2c1c(=O)[nH]c(=O)n2-c1ccccc1 (centres undefined) -7.03%
COc1cc(OC)c(NS(=O)(=O)c2cc(-c3cnc(C4CC4)o3)ccc2C)cc1Cl -26.3%
Cc1nnc(N2CCC(C(=O)NCCc3ccccc3)CC2)c2nn(-c3ccc(Cl)cc3)c(C)c12 -21.9%
CCOc1ccc(-n2nc3cc(C)c(NC(=O)c4cc(OCC)c(OCC)c(OCC)c4)cc3n2)cc1 9.14%
CCOc1ccc(-c2cc(-c3nc(-c4ccc(OC)c(OC)c4)no3)[nH]n2)cc1 -13.6%
Cc1ccccc1CSc1ncc(CO)n1Cc1ccc(F)cc1 -7.95%
COc1ccc(Cc2nc3ccccc3n2Cc2ccccc2F)cc1 -27.8%
CC(=O)c1ccc(NC(=O)CC(c2cccs2)N2Cc3ccccc3C2=O)cc1 (centres undefined) -0.394%
CCN(C(=O)Cn1cnc2sc(C)c(S(=O)(=O)N3CCN(c4ncccn4)CC3)c2c1=O)c1ccccc1F -8.2%
COc1ccc(-c2cn3cccnc3n2)cc1NC(=O)c1cc(C)cc(C)c1 -25%
Cc1cc(Cl)ccc1OCC(=O)N(Cc1ccco1)Cc1ccco1 -13.1%
Cc1ccc(-n2ncc(C(=O)N3CCN(c4ccc(Cl)cc4)CC3)c2C2CCN(C(=O)OC(C)(C)C)CC2)c(C)c1 3.36%
